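Briefly, cells in 96-well plates were exposed to five compound concentrations for 48 h, and endpoints were estimated by linear interpolation. GI50 = concentration required for 50% inhibition of growth. TGI marks complete inhibition of growth.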

Results on 4 compounds are retold here after PubChem BioAssay (NCI).

This assay relates to NCI-H322M lung. The experiment in a line: NCI tumour cell line growth inhibition, 48 h.
Take `Cc1ccc(S(=O)(=O)c2nc(-c3ccccc3)oc2S(=O)(=O)CC(=O)N2CCCC2)cc1`: the GI50 was 13.3 µM and the TGI came out at 26.1 µM.
On the same counts, the results for `Cn1cc(-c2cc(N)n3nc(-c4cn(C)c5ccccc45)cc3n2)c2cc(F)ccc21` are 2.09 µM and 5.74 µM.
On the same counts, the results for `C=CC(=O)Nc1nc(-c2cccc(NS(=O)(=O)c3cccc4c(N(C)C)cccc34)c2)cs1` are 11 µM and 20.9 µM.
On the same counts, the results for `CC(C)(C)c1cc(/C=C2\S/C(=N/c3ncn[nH]3)NC2=O)cc(C(C)(C)C)c1O` are 2.27 µM and 15.2 µM.
